{
  "source": "paper PMC7819943",
  "about": "“Rice protein-binding microarrays: a tool to detect cis-acting elements near promoter regions in rice”",
  "note": "The list shows a part of the results.",
  "data": [
    {"biological_target": "T1, OsWOX13 (Oryza sativa, UniProt Q5QMM3 1-267)", "T1 sequence": "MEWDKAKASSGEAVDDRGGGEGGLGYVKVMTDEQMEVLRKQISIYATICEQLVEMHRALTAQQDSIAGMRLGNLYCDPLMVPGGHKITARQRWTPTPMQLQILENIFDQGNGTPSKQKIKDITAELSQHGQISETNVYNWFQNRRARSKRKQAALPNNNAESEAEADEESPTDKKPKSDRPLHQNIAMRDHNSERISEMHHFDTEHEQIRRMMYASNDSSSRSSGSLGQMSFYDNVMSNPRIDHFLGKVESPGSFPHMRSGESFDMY", "test": "protein-binding microarray (RPBM); PBS, 2% BSA, 51.3 ng/ul salmon testes DNA, 50 uM zinc acetate, 200 nM TF, 25 C, 1 h; high values mean tight binding", "conditions": "protein: recombinant; tags: N-terminal polyhistidine and DsRed monomer fusion (pET32a); label: CyDye5-dUTP incorporated in the synthesized complementary strand; 3' TTTTT single-stranded linker to array surface; dsDNA, one strand shown", "in_short": "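The binding signal for each feature is its fluorescence intensity in arbitrary units. An Axon 4000B scanner was used to read a custom Agilent array that had been made double-stranded with Cy5-dUTP primer extension, blocked with 2% BSA, incubated at 25 °C for 1 h with 200 nM protein in PBS, 2% BSA, salmon testes DNA and 50 µM zinc acetate, and washed. The protein was an N-terminal polyhistidine–DsRed transcription factor fusion from E. coli BL21-CodonPlus, purified on Ni–NTA.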", "values": [
      {"sequence": "TCACATTTATATTGATGTTAATGAATCTAAATAGATAAATCGGAGTCACCTAGTGCAG", "binding signal": "4070 fluorescence intensity (a.u.)"},
      {"sequence": "TCACCATTGATTAGCGAATAAGATGGTGATTAGTGTCGCCCGGAGTCACCTAGTGCAG", "binding signal": "30300 fluorescence intensity (a.u.)"},
      {"sequence": "CTGGTTCTATAATAATTGATGTTTTAGATAAGATTGAAGTCGGAGTCACCTAGTGCAG", "binding signal": "11200 fluorescence intensity (a.u.)"},
      {"sequence": "ATGATTAGGCGTAGCCCTGGTCAAGCTGCATGTGGAGAGGCGGAGTCACCTAGTGCAG", "binding signal": "7230 fluorescence intensity (a.u.)"},
      {"sequence": "GAAGACTTAATTGGCGATTCTGCGCTAATCTCTCGCTTAACGGAGTCACCTAGTGCAG", "binding signal": "28200 fluorescence intensity (a.u.)"},
      {"sequence": "AATAGTAATTAGCTGGTAATCACATGGGCAAAGTTGTAAACGGAGTCACCTAGTGCAG", "binding signal": "27300 fluorescence intensity (a.u.)"},
      {"sequence": "AATTAGCTAATACTTAATTAATCACGTGCTAATGGATCACCGGAGTCACCTAGTGCAG", "binding signal": "9830 fluorescence intensity (a.u.)"},
      {"sequence": "AGCATCCAATCAAACCCAGCAGATTATGGATGGGTTTATCCGGAGTCACCTAGTGCAG", "binding signal": "26800 fluorescence intensity (a.u.)"},
      {"sequence": "ATAAATTTAGGATAAGAAAATTACTCAGGTAGGAGTAATACGGAGTCACCTAGTGCAG", "binding signal": "3250 fluorescence intensity (a.u.)"},
      {"sequence": "CTTGATTGCCTTCAATATCAAGATGTTCAAGAAGTGATTTCGGAGTCACCTAGTGCAG", "binding signal": "39800 fluorescence intensity (a.u.)"},
      {"sequence": "TCGCCGTTAATTGCATAATAATCTGGACAAGTGATGCCTACGGAGTCACCTAGTGCAG", "binding signal": "33800 fluorescence intensity (a.u.)"},
      {"sequence": "ATCCATGTAAATTAACTCATCCAATGTGACAGCACGACGCCGGAGTCACCTAGTGCAG", "binding signal": "8800 fluorescence intensity (a.u.)"},
      {"sequence": "AGATTATATCTAACAGCTAATTGAATTTATTGTGTCATGACGGAGTCACCTAGTGCAG", "binding signal": "8570 fluorescence intensity (a.u.)"},
      {"sequence": "ATTTAATTTCTTGGACAGCAATGATGGAGTTCATAGAGCTCGGAGTCACCTAGTGCAG", "binding signal": "18900 fluorescence intensity (a.u.)"},
      {"sequence": "CACTGATTTCTTTATAAATGCAATTGGAAATTAGTACTATCGGAGTCACCTAGTGCAG", "binding signal": "15900 fluorescence intensity (a.u.)"},
      {"sequence": "CATATCAAATCAACTAAATTTATAAATGTAATTTTAGTTACGGAGTCACCTAGTGCAG", "binding signal": "9970 fluorescence intensity (a.u.)"},
      {"sequence": "TTCGTAAATTTGATCGAATTTGGCTTTTAGACGCTGGACACGGAGTCACCTAGTGCAG", "binding signal": "19200 fluorescence intensity (a.u.)"},
      {"sequence": "TTTTGTTAATTGTTTCCCCTTTTGTTTGGTTTTGATGTTTCGGAGTCACCTAGTGCAG", "binding signal": "28700 fluorescence intensity (a.u.)"},
      {"sequence": "GTTTAAATTGCATATGTAGTATGTTTAGCATTAAACCGTTCGGAGTCACCTAGTGCAG", "binding signal": "13900 fluorescence intensity (a.u.)"},
      {"sequence": "TTGCAATCACCGAACAAGGTTATGCATAATGCAAACATTGCGGAGTCACCTAGTGCAG", "binding signal": "5470 fluorescence intensity (a.u.)"},
      {"sequence": "CAGAAACATCACCAATCACTAAACAAGTAGCAGGACATCTCGGAGTCACCTAGTGCAG", "binding signal": "10500 fluorescence intensity (a.u.)"},
      {"sequence": "ATTATTAAACGTAGACTAATTAGAATTATTAAACGTAGACCGGAGTCACCTAGTGCAG", "binding signal": "17800 fluorescence intensity (a.u.)"},
      {"sequence": "CTTTATAATTTATATTCCTAATGTTTGACTTAAACATTGTCGGAGTCACCTAGTGCAG", "binding signal": "17000 fluorescence intensity (a.u.)"},
      {"sequence": "GACCAAGAAATAATTATTATCACATTATAGTTTGGATTACCGGAGTCACCTAGTGCAG", "binding signal": "4840 fluorescence intensity (a.u.)"},
      {"sequence": "GCCTTAATCTAATGATCAGTCAAAACATAGTCTAATTTGGCGGAGTCACCTAGTGCAG", "binding signal": "15000 fluorescence intensity (a.u.)"},
      {"sequence": "TGTGACGTCAATTTATCATCTATTTCATGGAGCAAACTTGCGGAGTCACCTAGTGCAG", "binding signal": "21900 fluorescence intensity (a.u.)"},
      {"sequence": "CTGATTACTAAATGGGCCGCATCATGAGTTTTGTTTTAATCGGAGTCACCTAGTGCAG", "binding signal": "17700 fluorescence intensity (a.u.)"},
      {"sequence": "AGATATATAAGATTGATCTCCCACACCACACCACAGCACTCGGAGTCACCTAGTGCAG", "binding signal": "3190 fluorescence intensity (a.u.)"},
      {"sequence": "TTTCAGTGGTCCAATCAACGCTGCAGGCCACTGCACTGTGCGGAGTCACCTAGTGCAG", "binding signal": "4700 fluorescence intensity (a.u.)"},
      {"sequence": "TAGCTGATTATCATGTGTTTGTTAGCAGGTCCAACATCCCCGGAGTCACCTAGTGCAG", "binding signal": "39000 fluorescence intensity (a.u.)"},
      {"sequence": "TCCTTGCTAACAAATCAACCAATTTGTCCATTCCCTATGTCGGAGTCACCTAGTGCAG", "binding signal": "3440 fluorescence intensity (a.u.)"},
      {"sequence": "CATAACTCAATCACCGTGAGCACTGCAAGAGAGTTGTGCGCGGAGTCACCTAGTGCAG", "binding signal": "16600 fluorescence intensity (a.u.)"},
      {"sequence": "ATTTAGACATATCAATGAAATGCTGTTGATCAAGTTTCTACGGAGTCACCTAGTGCAG", "binding signal": "3810 fluorescence intensity (a.u.)"},
      {"sequence": "ATCCAAATAAATTGGCCTATTAGCTCAGCTGGTTAGAGCGCGGAGTCACCTAGTGCAG", "binding signal": "20000 fluorescence intensity (a.u.)"},
      {"sequence": "TTTCTTTTAAATTACTTATCCAAATCATGATCCGGTTGCACGGAGTCACCTAGTGCAG", "binding signal": "5900 fluorescence intensity (a.u.)"},
      {"sequence": "TGCTAGCTAGCATAATTGACTTGCTACTATATATATGAACCGGAGTCACCTAGTGCAG", "binding signal": "3310 fluorescence intensity (a.u.)"},
      {"sequence": "ACATAATGGGCCAAATGACACAAGCCATTTTGACGTGCGTCGGAGTCACCTAGTGCAG", "binding signal": "5510 fluorescence intensity (a.u.)"},
      {"sequence": "GACCAGATTGGTATTGTTGAGTTAAATCATATATTTACCCCGGAGTCACCTAGTGCAG", "binding signal": "19600 fluorescence intensity (a.u.)"},
      {"sequence": "AGCATGATGCCCATCAGAGGTTGATTGGTCCCTGCACAAACGGAGTCACCTAGTGCAG", "binding signal": "14900 fluorescence intensity (a.u.)"},
      {"sequence": "CAGTGGATTGATGTATTATTGTCATCCAAATCATGCCATTCGGAGTCACCTAGTGCAG", "binding signal": "47700 fluorescence intensity (a.u.)"},
      {"sequence": "GTGATTGAGGCCCTGTTCAGATGGGAAACTTTTAAGTCCCCGGAGTCACCTAGTGCAG", "binding signal": "35800 fluorescence intensity (a.u.)"},
      {"sequence": "AGAAAATTGAGGTTTATTTATTTAATATCGTTCATGTAATCGGAGTCACCTAGTGCAG", "binding signal": "10100 fluorescence intensity (a.u.)"},
      {"sequence": "CTTAATTTATGCTATTTTAGGCAATAATACCTTATATACCCGGAGTCACCTAGTGCAG", "binding signal": "24100 fluorescence intensity (a.u.)"},
      {"sequence": "ATTAATGTTAAATTTAATGAAACTAATTTGATATTATAAACGGAGTCACCTAGTGCAG", "binding signal": "9540 fluorescence intensity (a.u.)"},
      {"sequence": "GTTGGCTCGCCATTCCAGAGCTCGAGGTGGAGATCGCGGGCGGAGTCACCTAGTGCAG", "binding signal": "17600 fluorescence intensity (a.u.)"},
      {"sequence": "TCAAATTTACACATCTAAAGTTTAGAGACCCAAAGTTTATCGGAGTCACCTAGTGCAG", "binding signal": "3510 fluorescence intensity (a.u.)"},
      {"sequence": "ATGTTTGAAAATTAATTTAGAGTAATAAACATAGACTACACGGAGTCACCTAGTGCAG", "binding signal": "18300 fluorescence intensity (a.u.)"},
      {"sequence": "GGCTAAATTACCACCCTAACTCGATTCGAAGCGGTTTTCACGGAGTCACCTAGTGCAG", "binding signal": "20700 fluorescence intensity (a.u.)"},
      {"sequence": "CAAATTTTCAAGTTGATGGATCACAAAGTGAGTGAGTAAGCGGAGTCACCTAGTGCAG", "binding signal": "4290 fluorescence intensity (a.u.)"},
      {"sequence": "TTCTGATGGAGAGTTTTCTGAATAGAGGCCTCGGACTTCACGGAGTCACCTAGTGCAG", "binding signal": "5390 fluorescence intensity (a.u.)"},
      {"sequence": "CTACTTATACTGACAAATTATGGCATGACTAAAATTTGGCCGGAGTCACCTAGTGCAG", "binding signal": "11300 fluorescence intensity (a.u.)"},
      {"sequence": "ATTTGATTAGAAAATGAAACGACTTATAATAGTCCATCCGCGGAGTCACCTAGTGCAG", "binding signal": "43700 fluorescence intensity (a.u.)"},
      {"sequence": "TACCTGTTCTCACAATATGGATTGACATCTGTTCATATATCGGAGTCACCTAGTGCAG", "binding signal": "3290 fluorescence intensity (a.u.)"},
      {"sequence": "ATAGCATCCAATTAGATTGTTGACATCCGGTTGAATAGAACGGAGTCACCTAGTGCAG", "binding signal": "9070 fluorescence intensity (a.u.)"}
    ]}
  ]
}
